{
  "source": "PubChem BioAssay AID686978",
  "about": "(National Center for Advancing Translational Sciences (NCATS), 2013)",
  "note": "About 64,000 (15%) of roughly 420,000 compounds were called active. Inconclusive results, whose numbers are uncertain, are shown with a selection of clear calls. The call rests on the fitted dose curve; in most records, active means well fitted inhibition curve with a large enough effect; inconclusive means small, poorly fitted or top-dose-only effect; inactive means flat fitted curve, though single readings scatter. No potency is given beside an inconclusive call; the fits are too rough. On the % scale 0 is the no-effect control and ±100 the full control effect; potency means the concentration at half of the fitted maximal effect; tags describe the fitted curve by direction and shape.",
  "data": [
    {"test": "qHTS for Inhibitors of human tyrosyl-DNA phosphodiesterase 1 (TDP1): qHTS in cells in absence of CPT; further: nearly all actives have a fitted effect of over 55% in size", "settings": "DT40 Tdp1-/- hTDP1 cells, no CPT, ATP luminescence, 48 h; activity change, negative = growth inhibition: at 46.2 µM (top of the series) unless noted", "how_it_was_run": "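Growth of hTDP1-complemented DT40 Tdp1-knockout cells is measured by ATP luminescence after at least 48 hr compound exposure at 37 °C, with DMSO substituting for the 20 nM CPT used in the parallel screen.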", "values": [
      {"smiles": "CN1OC[C@@H]2CN(S(=O)(=O)c3cccc(C(F)(F)F)c3)[C@H](c3ccc(N4CCCCC4)cc3)C[C@@H]21", "Potency": "inconclusive [inhibitor, single point]"},
      {"smiles": "O=c1cc(-c2cc(O)c(O)c(O)c2)oc2cc(O)cc(O)c12", "Potency": "inconclusive [inhibitor, single point]"},
      {"smiles": "Cc1nc(N2CCOCC2)c2c(C)c(C(=O)Nc3ccc(F)cc3Cl)sc2n1", "Potency": "inactive"},
      {"smiles": "CCOC(=O)c1sc(NC(=O)Nc2ccccc2Cl)cc1C", "Potency": "active: 14.6 µM"},
      {"smiles": "Oc1ccc(-c2nnc(SCC3CCCCC3)o2)cc1", "activity change, negative = growth inhibition": "inconclusive: -31.6% [inhibitor]"},
      {"smiles": "Cc1c(C(=O)NCC2(c3ccccc3)CCOCC2)cnn1-c1nccc(-c2ccco2)n1", "Potency": "inactive"},
      {"smiles": "COc1cc(OC)cc(C(=O)NC2CC3CCC(C2)N3C)c1", "note": "(configuration not stated)", "Potency": "inactive"},
      {"smiles": "CN(c1ccccc1)S(=O)(=O)c1cccc(C(=O)NNC(=O)c2ccccc2)c1", "Potency": "active: 16.4 µM"},
      {"smiles": "CSCCC(=O)Nc1nc(-c2ccccn2)cs1", "Potency": "inconclusive [inhibitor, single point]"},
      {"smiles": "C=CCN1C(C(=O)c2ccccc2)=C(OC(=O)COc2ccccc2)c2ccccc2S1(=O)=O", "Potency": "inconclusive [inhibitor, single point]"},
      {"smiles": "CC1CCN(c2ccccc2NC(=S)NC(=O)c2ccco2)CC1", "Potency": "active: 29.1 µM"},
      {"smiles": "COCCn1c(NCc2ccccc2)nc2c1c(=O)[nH]c(=O)n2C", "activity change, negative = growth inhibition": "inconclusive: -29.2% [inhibitor]"},
      {"smiles": "Cc1ccc(NC(=O)C(Cc2ccccc2)NS(=O)(=O)c2ccc3c(c2)CCC(=O)N3)cc1", "note": "(configuration not stated)", "Potency": "inactive"},
      {"smiles": "Cc1ccc(NC(=O)C(=O)NCC(c2ccc3c(c2)OCO3)N2CCN(C)CC2)c(C)c1", "note": "(configuration not stated)", "Potency": "inconclusive [inhibitor, single point]"},
      {"smiles": "Cc1cc(C)cc(NC(=O)CSc2nc3ncccc3[nH]2)c1", "Potency": "inconclusive [inhibitor, single point]"},
      {"smiles": "CC1=NNC(=O)C1CCC(=O)N/N=C/c1ccc(Cl)cc1Cl", "note": "(configuration not stated)", "Potency": "inactive"},
      {"smiles": "CN(C)S(=O)(=O)c1ccc(-c2cn3ccccc3n2)cc1", "Potency": "inconclusive [inhibitor, partial curve]"},
      {"smiles": "Cc1cc(C(C)(C)C)cc(C)c1COC(=O)c1cccnc1", "Potency": "inconclusive [inhibitor, partial curve]"},
      {"smiles": "CCCN(CC(=O)Nc1ccccc1C)C(=O)Cc1coc2cc(C)ccc12", "Potency": "inconclusive [inhibitor, single point]"},
      {"smiles": "N#C/C(=C\\c1ccc(OC(=O)c2ccccn2)cc1)C(N)=O", "Potency": "inactive"},
      {"smiles": "Clc1ccc2c(N/N=C/c3ccccc3Br)ccnc2c1", "Potency": "active: 2.91 µM"},
      {"smiles": "C=CCNC(=O)c1ccc([N+](=O)[O-])c(Cl)c1", "Potency": "inactive"},
      {"smiles": "COc1ccccc1CNS(=O)(=O)c1cc2c3c(c1)CCC(=O)N3CCC2", "Potency": "inconclusive [inhibitor, single point]"},
      {"smiles": "C=CCOC(=O)C1=C[C@H](c2cn(C(C)=O)c3ccccc23)[C@@H](CCCO)[C@H](OCC)O1", "Potency": "inconclusive [inhibitor, single point]"},
      {"smiles": "CCOC(=O)C1(C)CCN1C(=O)c1cccc(OC)c1", "note": "(configuration not stated)", "Potency": "inactive"},
      {"smiles": "Cc1cc(C(=O)NNC(=O)c2ccc(C(F)(F)F)cc2)no1", "Potency": "inactive"},
      {"smiles": "CS(=O)(=O)c1cccc(-c2nnc(NC(=O)c3ccc4c(c3)OCCO4)o2)c1", "Potency": "inconclusive [inhibitor, single point]"},
      {"smiles": "CS(=O)(=O)Nc1cccc(-c2nc(NC3CC3)c3ccccc3n2)c1", "Potency": "inconclusive [inhibitor, single point]"},
      {"smiles": "O=C(Nc1ccc(/C=C/c2nc3ccccc3o2)cc1)c1cccc(C(F)(F)F)c1", "Potency": "inconclusive [inhibitor, single point]"},
      {"smiles": "CC(OC(=O)CC1CCCCC1)C(=O)Nc1ccc(F)cc1", "note": "(configuration not stated)", "Potency": "inconclusive [inhibitor, single point]"},
      {"smiles": "S=c1[nH]nc(-c2ccccn2)n1/N=C/c1cccc2ccccc12", "Potency": "inactive"},
      {"smiles": "CCOC(=O)/C=c1\\s/c(=C\\c2ccccc2OC)c(=O)n1CC(=O)N1CCOCC1", "Potency": "inconclusive [inhibitor, partial curve, poor fit]"},
      {"smiles": "COc1ccccc1-c1ccc2c(c1)C(C)(Cc1ccc(Cl)cc1)C(=O)N2", "note": "(configuration not stated)", "Potency": "inactive"},
      {"smiles": "COc1ccc(C(CNC(=O)c2cccc(S(=O)(=O)Nc3ccc(Br)cc3)c2)N(C)C)cc1", "note": "(configuration not stated)", "Potency": "inconclusive [inhibitor, single point]"},
      {"smiles": "CCCCCCCCC#CCC#CCC#CCCCC(=O)O", "activity change, negative = growth inhibition": "inactive: -7.97% [at 4.12 µM]"},
      {"smiles": "CC1(C)OC(=O)C=C[C@]2(C)[C@H]3CC[C@@]4(C)[C@H](c5ccoc5)OC(=O)[C@H]5O[C@]54[C@]3(C)C(=O)C[C@@H]12", "Potency": "inactive"},
      {"smiles": "CC1CCN(C(=O)COC(=O)/C=C/c2ccco2)CC1", "Potency": "inconclusive [inhibitor, single point]"},
      {"smiles": "O=C1CCC/C1=C/Nc1cccc(F)c1", "Potency": "inconclusive [inhibitor, single point]"},
      {"smiles": "CCOc1ccccc1C=NNC(=O)C1CC1", "Potency": "inactive"},
      {"smiles": "CC(=O)c1cccc(-c2ccnc3c2CC(C(=O)NCc2cccs2)O3)c1", "note": "(configuration not stated)", "Potency": "active: 0.731 µM"},
      {"smiles": "O=C(/C=C/c1ccc(S(=O)(=O)N2CCOCC2)cc1)NCc1ccccc1F", "Potency": "inactive"},
      {"smiles": "COC(=O)c1ccc(CNC(=O)C2CCC(=O)N(CCc3ccccn3)C2)cc1", "note": "(configuration not stated)", "Potency": "inactive"},
      {"smiles": "CCNC(=S)N1CCN(CCN2C(=O)c3cccc4cccc(c34)C2=O)CC1", "Potency": "inconclusive [inhibitor, partial curve]"},
      {"smiles": "COc1ccc(-c2nc(NC(=O)CSc3nnc(C)s3)ns2)cc1", "Potency": "inconclusive [inhibitor, full curve]"},
      {"smiles": "CCN1/C(=C/c2sc(-c3ccccc3C)c[n+]2C)Sc2ccccc21", "Potency": "active: 0.206 µM"},
      {"smiles": "CCc1c(C)sc(NC(=O)CC#N)c1C#N", "Potency": "inconclusive [inhibitor, single point]"},
      {"smiles": "CCOc1nnc(C)c2c(C)n(-c3cccc(OC)c3)nc12", "Potency": "inconclusive [inhibitor, single point]"}
    ]}
  ]
}
